According to US8063018B2, “Bivalent thrombin binding molecules comprising linkers” (National Research Council of Canada, priority 2004, dated 2011):
Like-named read-outs stand apart in the source and are kept apart here. At least one peptide structure holds a part that was inferred or is arguable (an end, a ring closure or a residue). At least one structure is not confirmed: it was looked up by name or label, or the drawing left a doubt. Residues, ends and D or L forms follow the SMILES beside them. No end group written: not given here.

Target: T1, CaCdc42 (R150K) (Candida albicans, UniProt P0CY33, R150K)
T1 construct: made in house; host or cells: E. coli BL21
Experiment: Fluorescence titration of sNBD-labeled, GMPPCP-loaded CaCdc42 (R150K) with CRIB peptides
Format: binding
Protocol: In order to construct a bivalent peptide ligand for Candida Cdc42 (CaCdc42) (with a suitable linker) (FIG. 12), the binding affinities of component peptides derived from the CRIB domains of Candida Cla4 and Step 20 were determined. Residue K150 of the R150K CaCdc42 mutant was covalently modified with the fluorescent probe, sNBD (Molecular Probes, Eugene, Oreg.), essentially as described by Nomanbhoy and Cerione (Nomanbhoy, T. and Cerione, R. A., 1999, 15878-15884.). The stoichiometry of the fluorescent probe per protein molecule was estimated at 1.13, based on protein concentration determined with ε280nm=13,610 M^−1 cm^−1 (Gill, S. C. and von Hippel, P. H., 1989, 319-326), and using the absorbance of the sNBD moiety of ε463nm=22,000 M^−1 cm^−1. Interaction of the CRIB peptides with sNBD-labeled CaCdc42 was monitored using extrinsic fluorescence measurements with a Hitachi F-2500 fluorescence spectrophotometer. Samples of sNBD-labeled, activated CaCdc42 were added in the assay buffer (50 mM phosphate, pH 6.8, 50 mM NaCl and 5 mM MgCl2) to a cuvette being continuously stirred. The protein concentration was 1 μM. Individual CRIB peptide dissolved in the same assay buffer was added drop-wise to the cuvette. The mixture was excited at 488 nm with an excitation slit width of 5 nm. The emission spectra were scanned from 510 nm to 590 nm. The fluorescence emission intensity at the emission maximum 545 nm was determined from each spectrum and the final value was obtained by averaging the values from five scans of the same sample. Control titration experiments were performed by adding the same volume of buffer instead of peptide. Each set of the titration data was repeated three times.
The Kd values for the binding of the CRIB peptides to sNBD-labeled activated CaCdc42 were determined by fitting the fluorescence titration data to a simple bimolecular association model as described by Leonard et al (Leonard, D. A., and others, 1997, 1173-1180). The association between CaCdc42 (P) and a CRIB peptide (L) can be described by the following equation
[formula] The fluorescence intensity (F) is related to the dissociation constant, Kd as follows,
[formula] where F0 and Ft are the fluorescence intensities at the starting and end points of the titration, respectively. PT is the total concentration of sNBD-labeled activated CaCdc42 and LT is the total concentration of the CRIB peptide at any point in the titration. Fitting of the data was carried out using the computer program Microcal Origin™ 6.0 (Northampton, Mass.). Average Kd values were determined from multiple independent measurements.

[1] = peptide alone, 1 μM CaCdc42 (R150K); read-out: Kd^m
[2] = read-out: Kd^m; peptide alone, 1 μM CaCdc42 (R150K)

T1 sequence (P0CY33 1-178 R150K): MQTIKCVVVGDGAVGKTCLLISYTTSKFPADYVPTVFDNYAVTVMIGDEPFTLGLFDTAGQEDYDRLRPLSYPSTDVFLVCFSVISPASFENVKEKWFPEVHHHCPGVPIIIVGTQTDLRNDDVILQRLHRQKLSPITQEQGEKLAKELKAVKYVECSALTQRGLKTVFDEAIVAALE

## CC[C@H](C)[C@H](NC(=O)[C@H](CCCCN)NC(=O)[C@H](CO)NC(=O)[C@H](Cc1c[nH]cn1)NC(=O)[C@H](CCC(N)=O)NC(=O)[C@H](CC(C)C)NC(=O)[C@H](CC(C)C)NC(=O)[C@H](CO)NC(=O)[C@H](CCCCN)NC(=O)[C@H](Cc1c[nH]c2ccccc12)NC(=O)[C@@H](NC(=O)[C@H](CC(=O)O)NC(=O)[C@@H]1CCCN1C(=O)[C@H](CC(C)C)NC(=O)CNC(=O)[C@@H](NC(=O)[C@H](Cc1ccccc1)NC(=O)[C@@H](N)CC(N)=O)[C@@H](C)O)[C@@H](C)O)C(=O)N[C@H](C(=O)O)[C@@H](C)O [cCla4] (H-NFTGLPDTWKSLLQHSKIT-OH)
+mCla4 (50 μM); read-out: Kd^m
  Kd: 311 ± 12 µM
[1]
  Kd: 275 µM

## CC[C@H](C)[C@H](NC(=O)CNC(=O)[C@H](CO)NC(=O)[C@H](C)NC(=O)[C@H](CO)NC(=O)[C@H](CC(C)C)NC(=O)[C@H](CC(C)C)NC(=O)[C@H](CCCNC(=N)N)NC(=O)[C@H](CCC(=O)O)NC(=O)[C@H](Cc1c[nH]c2ccccc12)NC(=O)[C@H](CCC(=O)O)NC(=O)[C@@H](NC(=O)[C@@H]1CCCN1C(=O)[C@H](CC(C)C)NC(=O)CNC(=O)[C@@H](NC(=O)[C@H](Cc1ccc(O)cc1)NC(=O)[C@@H](N)CO)[C@@H](C)O)[C@@H](C)CC)C(=O)N[C@H](C(=O)O)[C@@H](C)O [cCst20] (H-SYTGLPIEWERLLSASGIT-OH)
+mCst20 (50 μM); read-out: Kd^m
  Kd: 207 µM
[1]
  Kd: 1160 µM

## CC[C@H](C)[C@H](NC(=O)[C@@H]1CCCN1C(=O)CNC(=O)[C@H](CO)NC(=O)[C@@H](NC(=O)CNC(=O)[C@H](CO)NC(=O)[C@H](CC(N)=O)NC(=O)CNC(=O)CN)C(C)C)C(=O)N[C@@H](CC(N)=O)C(=O)N[C@@H](Cc1ccccc1)C(=O)N[C@H](C(=O)N[C@@H](Cc1c[nH]cn1)C(=O)N[C@@H](CCCCN)C(=O)N[C@H](C(=O)N[C@@H](Cc1c[nH]cn1)C(=O)N[C@H](C(=O)NCC(=O)N[C@@H](Cc1ccccc1)C(=O)N[C@@H](CC(=O)O)C(=O)N1CCC[C@H]1C(=O)N[C@@H](C)C(=O)N[C@@H](CO)C(=O)NCC(=O)O)C(C)C)C(C)C)[C@@H](C)O [mCla4] (H-GGNSGVSGPINFTHKVHVGFDPASG-OH)
+cCla4; read-out: Kd^m
  Kd: 4.1 ± 0.13 µM
[1]
  Kd: 4.2 ± 0.15 µM

## CC[C@H](C)[C@H](NC(=O)CNC(=O)[C@@H](NC(=O)[C@H](Cc1c[nH]cn1)NC(=O)[C@H](C)NC(=O)[C@H](CC(C)C)NC(=O)[C@H](Cc1c[nH]cn1)NC(=O)[C@H](CCCCN)NC(=O)[C@H](C)NC(=O)[C@H](CC(N)=O)NC(=O)[C@H](Cc1ccccc1)NC(=O)[C@@H]1CCCN1C(=O)[C@@H](NC(=O)[C@H](CO)NC(=O)[C@@H](NC(=O)[C@H](CCCCN)NC(=O)[C@@H](NC(=O)[C@H](CC(N)=O)NC(=O)[C@@H](NC(=O)[C@@H](N)CCC(=O)O)C(C)C)[C@@H](C)CC)[C@@H](C)CC)[C@@H](C)O)C(C)C)C(=O)N[C@@H](CC(=O)O)C(=O)N[C@@H](CC(=O)O)C(=O)N[C@@H](CC(N)=O)C(=O)NCC(=O)O [mCst20] (H-EVNIKISTPFNAKHLAHVGIDDNG-OH)
+cSt20 (cCst20 added); read-out: Kd^m
  Kd: 0.081 µM
[1]
  Kd: 0.43 µM

## EVNIKISTPFNAKHLAHVGIDDNGPNFTGLPDTWKSLLQHSKIT [mCst20-P-cCla4]
[2]
  Kd: 0.093 ± 0.01 µM

## GGNSGVSGPINFTHKVHVGFDPASGNFTGLPDTWKSLLQHSKIT [eCla4]
[2]
  Kd: 0.025 µM

## GGNSGVSGPINFTHKVHVGFDPASGSYTGLPIEWERLLSASGIT [mCla4-cCst20]
[2]
  Kd: 0.031 µM

## GGNSGVSGPINFTHKVHVGFDSGSGNFTGLPDTWKSLLQHSKIT [eCla4-SG]
[2]
  Kd: 0.067 µM
